Measured values as given in PubChem BioAssay AID1460 (National Center for Advancing Translational Sciences (NCATS), 2008).
Hit rate of the full screen: of about 270,000 compounds, about 5,800 (2.1%) were called active. The shares of active, inactive and inconclusive entries below differ from those in the screen. The call rests on the fitted dose curve; in most records, active means well fitted inhibition curve with a large enough effect; inconclusive means small, poorly fitted or top-dose-only effect; inactive means flat fitted curve, though single readings scatter. Where the call is inconclusive, the potency comes from a doubtful curve fit.

What follows are compounds tested against Microtubule-associated protein tau (Homo sapiens) (UniProt P10636) (assay: qHTS for Inhibitors of Tau Fibril Formation, Thioflavin T Binding). Details: recombinant tau K18 P301L, heparin-induced fibrillization, ThT fluorescence; series mostly up to 57.4 µM.
Sequence of UniProt P10636 (P10636 whole entry, looked up): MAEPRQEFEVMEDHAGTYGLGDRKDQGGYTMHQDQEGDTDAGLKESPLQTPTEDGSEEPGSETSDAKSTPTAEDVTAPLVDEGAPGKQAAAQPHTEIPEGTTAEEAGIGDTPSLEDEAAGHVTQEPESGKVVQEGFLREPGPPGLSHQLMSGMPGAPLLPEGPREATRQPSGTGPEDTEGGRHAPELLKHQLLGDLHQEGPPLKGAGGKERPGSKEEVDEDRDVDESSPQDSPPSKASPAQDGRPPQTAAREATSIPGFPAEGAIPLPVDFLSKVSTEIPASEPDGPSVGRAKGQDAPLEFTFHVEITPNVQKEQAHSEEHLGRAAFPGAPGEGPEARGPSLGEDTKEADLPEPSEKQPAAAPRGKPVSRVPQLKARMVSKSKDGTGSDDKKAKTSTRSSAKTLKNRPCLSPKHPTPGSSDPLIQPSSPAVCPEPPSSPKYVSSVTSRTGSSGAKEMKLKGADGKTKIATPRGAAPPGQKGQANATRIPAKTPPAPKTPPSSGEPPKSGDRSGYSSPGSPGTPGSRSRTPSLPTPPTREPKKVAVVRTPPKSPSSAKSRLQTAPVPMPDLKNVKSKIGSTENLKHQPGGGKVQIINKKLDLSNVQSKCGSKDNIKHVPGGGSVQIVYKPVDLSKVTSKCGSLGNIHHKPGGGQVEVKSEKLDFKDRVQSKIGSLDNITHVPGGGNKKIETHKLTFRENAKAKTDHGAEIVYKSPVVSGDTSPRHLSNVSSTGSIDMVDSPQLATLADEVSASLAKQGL
Method in brief: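 Using a mix of unlabeled (15 uM) and Alexa 594-labeled (0.24 uM) tau K18 P301L, heparin-triggered fibrillization over 6 hr at 37 C was scored by ThT fluorescence.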
Further: nearly all actives have a fitted effect of over 55% in size.
Potency means the concentration at half of the fitted maximal effect; tags describe the fitted curve by direction and shape.

Structure (SMILES) | Potency
Cc1c(NC(=O)CN2C(=O)c3ccccc3C2=O)c(=O)n(-c2ccccc2)n1C | inconclusive: 1.78 µM [inhibitor, partial curve]
CCn1c2ccccc2c2cc(NC(=O)C/C(C)=N/NC(=O)c3ccccc3N)ccc21 | inconclusive: 10 µM [inhibitor, partial curve]
Cc1ccc(C(=O)NCc2ccccc2)cc1NC(=O)c1nsc2ccccc12 | inactive
CCOc1ccc(Nc2ncnc3scc(-c4ccc(OC)cc4)c23)cc1 | inconclusive: 12.6 µM [inhibitor, partial curve]
O=C(CCCSc1nc2ccccc2[nH]1)N1CCN(c2ccc([N+](=O)[O-])cc2)CC1 | active: 0.794 µM
Cc1ccc(NC(=O)c2oc3ccccc3c2NC(=O)C23CC4CC(CC(C4)C2)C3)cc1 | inactive
Cc1oc2cc(O)ccc2c(=O)c1Oc1ccccc1Br | inconclusive: 20 µM [inhibitor, partial curve, poor fit]
COc1ccc(CSc2nnc(C)n2N)cc1[N+](=O)[O-] | inactive
O=C(Nc1cc(S(=O)(=O)N2CCOCC2)ccc1O)c1ccco1 | inactive
CCSc1cc(C2C(C(=O)OC)=C(C)NC3=C2C(=O)CCC3)c(C)o1 (stereo unspecified) | inactive
COc1ccc(-c2cc(=O)oc3c4c(ccc23)OCN(Cc2ccccc2)C4)cc1 | inconclusive: 22.4 µM [inhibitor, single point]
O=C(Nc1cc(F)ccc1F)c1ccc(CN2CC(=O)N3CCCCC3C2=O)cc1 (stereo unspecified) | inactive
Cc1ccc(C)n1-c1nc(=S)[nH][nH]1 | inactive
COC(=O)C1=C(C)N(c2cccc(OC)c2)C(=O)/C1=C\c1ccco1 | inconclusive: 22.4 µM [inhibitor, partial curve]
Cc1cccc(/C=N/NC(=O)NC2CCCCC2)c1 | inactive
COc1cccc(-c2nn(-c3ccccc3)cc2CN(C)Cc2c(C)nc3ccccn23)c1 | inconclusive: 22.4 µM [inhibitor, partial curve]
O=C(Nc1nc(-c2ccccn2)cs1)C12CC3CC(CC(O)(C3)C1)C2 | inactive
C=C(C)c1cccc(C(C)(C)NC(=O)N2CCC(C(N)=O)CC2)c1 | inactive
CCS(=O)(=O)c1ncc(Cl)c(C(=O)NCc2ccccc2)n1 | inconclusive: 0.224 µM [inhibitor, partial curve, poor fit]
COc1ccc(Br)cc1/C=C/C(=O)c1ccc(NC(C)=O)cc1 | inconclusive: 14.1 µM [inhibitor, partial curve]
NC(=S)N/N=C/c1cccc(O)c1O | inconclusive: 3.98 µM [inhibitor, full curve]
